# The other results are listed elsewhere or left out.
# Columns and labels:
# Assay in all cases: glycan array binding signal (z-score within array); higher = stronger binding
# Conditions in all cases: glycan notation: IUPAC condensed, linker removed
# [1] = biological target: Neu5Ac(a2-3)Gal(b1-3)GalNAc
# Procedure, shortened: (§1)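 Glycan array data were curated from 3228 arrays in the Consortium for Functional Glycomics database and kept only where the protein sequence was available. Glycan names were converted to IUPAC-condensed notation, and columns mapping to the same glycan were averaged. The binding signal is a within-array Z-score, averaged across arrays of the same protein sequence at different concentrations or buffers and across linkers. Negative Z-scores can be read as non-binding.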
# [2] = biological target: Neu5Ac(a2-3)Gal(b1-3)GalNAc(b1-3)Gal(a1-4)Gal(b1-4)Glc
# Procedure, shortened: as §1
# [3] = biological target: Neu5Ac(a2-3)Gal(b1-3)GalNAc(b1-4)[Neu5Ac(a2-3)]Gal(b1-4)Glc
# Procedure, shortened: as §1
# [4] = biological target: Neu5Ac(a2-3)Gal(b1-3)GalNAc(b1-4)[Neu5Ac(a2-8)Neu5Ac(a2-3)]Gal(b1-4)Glc
# Procedure, shortened: as §1
# [5] = biological target: Neu5Ac(a2-3)Gal(b1-3)GalNAc6S
# Procedure, shortened: as §1
# [6] = biological target: Neu5Ac(a2-3)Gal(b1-3)GlcNAc
# Procedure, shortened: as §1
# [7] = biological target: Neu5Ac(a2-3)Gal(b1-3)GlcNAc(b1-2)Man
# Procedure, shortened: as §1
# [8] = biological target: Neu5Ac(a2-3)Gal(b1-3)GlcNAc(b1-2)Man(a1-3)[GlcNAc(b1-4)][Neu5Ac(a2-3)Gal(b1-3)GlcNAc(b1-2)Man(a1-6)]Man(b1-4)GlcNAc(b1-4)GlcNAc
# Procedure, shortened: as §1
# [9] = biological target: Neu5Ac(a2-3)Gal(b1-3)GlcNAc(b1-2)Man(a1-3)[Neu5Ac(a2-3)Gal(b1-3)GlcNAc(b1-2)Man(a1-6)]Man(b1-4)GlcNAc(b1-4)GlcNAc
# Procedure, shortened: as §1
# [10] = biological target: Neu5Ac(a2-3)Gal(b1-3)GlcNAc(b1-2)[Neu5Ac(a2-3)Gal(b1-3)GlcNAc(b1-4)]Man(a1-6)[Neu5Ac(a2-3)Gal(b1-3)GlcNAc(b1-2)Man(a1-3)]Man(b1-4)GlcNAc(b1-4)GlcNAc
# Procedure, shortened: as §1
# [11] = biological target: Neu5Ac(a2-3)Gal(b1-3)GlcNAc(b1-3)Gal(b1-3)GlcNAc
# Procedure, shortened: as §1
# [12] = biological target: Neu5Ac(a2-3)Gal(b1-3)GlcNAc(b1-3)Gal(b1-4)GlcNAc
# Procedure, shortened: as §1
# [13] = biological target: Neu5Ac(a2-3)Gal(b1-3)GlcNAc(b1-3)GalNAc
# Procedure, shortened: as §1
# [14] = biological target: Neu5Ac(a2-3)Gal(b1-3)GlcNAc(b1-4)Gal(b1-4)Glc
# Procedure, shortened: as §1
# [15] = biological target: Neu5Ac(a2-3)Gal(b1-3)GlcNAc(b1-6)GalNAc
# Procedure, shortened: as §1
# [16] = biological target: Neu5Ac(a2-3)Gal(b1-3)GlcNAc6S
# Procedure, shortened: as §1
# [17] = biological target: Neu5Ac(a2-3)Gal(b1-3)[Fuc(a1-4)]GlcNAc
# Procedure, shortened: as §1
# [18] = biological target: Neu5Ac(a2-3)Gal(b1-3)[Fuc(a1-4)]GlcNAc(b1-3)Gal(b1-3)[Fuc(a1-4)]GlcNAc
# Procedure, shortened: as §1
# [19] = biological target: Neu5Ac(a2-3)Gal(b1-3)[Fuc(a1-4)]GlcNAc(b1-3)Gal(b1-4)[Fuc(a1-3)]GlcNAc
# Procedure, shortened: as §1
# [20] = biological target: Neu5Ac(a2-3)Gal(b1-3)[GlcNAc(b1-6)]GalNAc
# Procedure, shortened: as §1
# [21] = biological target: Neu5Ac(a2-3)Gal(b1-3)[Neu5Ac(a2-6)]GalNAc
# Procedure, shortened: as §1
# [22] = biological target: Neu5Ac(a2-3)Gal(b1-3)[Neu5Ac(a2-6)]GlcNAc(b1-3)[Fuc(a1-3)[Gal(b1-4)]GlcNAc(b1-6)]Gal(b1-4)Glc
# Procedure, shortened: as §1
# [23] = biological target: Neu5Ac(a2-3)Gal(b1-3)]Neu5Ac(a2-3)Gal(b1-4)]GlcNAc
# Procedure, shortened: as §1
# Neu5Ac(a2-3)Gal(b1-4)Glc = biological target: Neu5Ac(a2-3)Gal(b1-4)Glc
# Procedure, shortened: as §1
# [24] = biological target: Neu5Ac(a2-3)Gal(b1-4)GlcNAc
# Procedure, shortened: as §1
# [25] = biological target: Neu5Ac(a2-3)Gal(b1-4)GlcNAc(b1-2)Man
# Procedure, shortened: as §1
# [26] = biological target: Neu5Ac(a2-3)Gal(b1-4)GlcNAc(b1-2)Man(a1-3)[GlcNAc(b1-4)][Neu5Ac(a2-3)Gal(b1-4)GlcNAc(b1-2)Man(a1-6)]Man(b1-4)GlcNAc(b1-4)GlcNAc
# Procedure, shortened: as §1
# [27] = biological target: Neu5Ac(a2-3)Gal(b1-4)GlcNAc(b1-2)Man(a1-3)[Neu5Ac(a2-3)Gal(b1-4)GlcNAc(b1-2)Man(a1-6)]Man(b1-4)GlcNAc(b1-4)GlcNAc
# Procedure, shortened: as §1
# [28] = biological target: Neu5Ac(a2-3)Gal(b1-4)GlcNAc(b1-2)Man(a1-3)[Neu5Ac(a2-3)Gal(b1-4)GlcNAc(b1-2)Man(a1-6)]Man(b1-4)GlcNAc(b1-4)[Fuc(a1-6)]GlcNAc
# Procedure, shortened: as §1
# [29] = biological target: Neu5Ac(a2-3)Gal(b1-4)GlcNAc(b1-2)Man(a1-3)[Neu5Ac(a2-6)Gal(b1-4)GlcNAc(b1-2)Man(a1-6)]Man(b1-4)GlcNAc(b1-4)GlcNAc
# Procedure, shortened: as §1
# [30] = biological target: Neu5Ac(a2-3)Gal(b1-4)GlcNAc(b1-2)[Neu5Ac(a2-3)Gal(b1-4)GlcNAc(b1-4)]Man(a1-3)[GlcNAc(b1-4)][Neu5Ac(a2-3)Gal(b1-4)GlcNAc(b1-2)[Neu5Ac(a2-3)Gal(b1-4)GlcNAc(b1-6)]Man(a1-6)]Man(b1-4)GlcNAc(b1-4)GlcNAc
# Procedure, shortened: as §1
# [31] = biological target: Neu5Ac(a2-3)Gal(b1-4)GlcNAc(b1-2)[Neu5Ac(a2-3)Gal(b1-4)GlcNAc(b1-4)]Man(a1-3)[GlcNAc(b1-4)][Neu5Ac(a2-3)Gal(b1-4)GlcNAc(b1-4)Man(a1-6)]Man(b1-4)GlcNAc(b1-4)GlcNAc
# Procedure, shortened: as §1
# [32] = biological target: Neu5Ac(a2-3)Gal(b1-4)GlcNAc(b1-2)[Neu5Ac(a2-3)Gal(b1-4)GlcNAc(b1-6)]Man(a1-6)[Neu5Ac(a2-3)Gal(b1-4)GlcNAc(b1-2)Man(a1-3)][GlcNAc(b1-4)]Man(b1-4)GlcNAc(b1-4)GlcNAc
# Procedure, shortened: as §1
# [33] = biological target: Neu5Ac(a2-3)Gal(b1-4)GlcNAc(b1-3)Gal
# Procedure, shortened: as §1
# [34] = biological target: Neu5Ac(a2-3)Gal(b1-4)GlcNAc(b1-3)Gal(b1-3)GlcNAc
# Procedure, shortened: as §1
# [35] = biological target: Neu5Ac(a2-3)Gal(b1-4)GlcNAc(b1-3)Gal(b1-4)GlcNAc
# Procedure, shortened: as §1
# [36] = biological target: Neu5Ac(a2-3)Gal(b1-4)GlcNAc(b1-3)Gal(b1-4)GlcNAc(b1-2)Man(a1-3)[Neu5Ac(a2-3)Gal(b1-4)GlcNAc(b1-3)Gal(b1-4)GlcNAc(b1-2)Man(a1-6)]Man(b1-4)GlcNAc(b1-4)GlcNAc
# Procedure, shortened: as §1
binder,measurement,setting,value
Epa3to1 (Candida glabrata) (protein) MGSSHHHHHHSSGLVPRGSHMKRELSSQNPFGYPIGCSPQDVAIIPGLTMELYSYPIVSGTPPNCYDASYVDPEYPRTGYLKRKMVGKSTGVTGNLNYKYSVEKACMVKYGNLPAGYNYNEPLTVSNFTMILYGYFKAQTTGLHTFFVNADDLLYINFGAGNAFDCCKREDSKTKLGEYVAYDIWHVDSSKNKVSLFLEKDLYYPIRMFFNNREYDSSLDLSFSVNGATDQISDFSGYLYSVPDQPDTCPAHIGYDTTCR,glycan array binding signal (z-score),[1],-0.471
same,glycan array binding signal (z-score),[2],-0.018
same,glycan array binding signal (z-score),[3],-0.242
same,glycan array binding signal (z-score),[4],-0.947
same,glycan array binding signal (z-score),[5],0.371
same,glycan array binding signal (z-score),[6],-0.48
same,glycan array binding signal (z-score),[7],-0.709
same,glycan array binding signal (z-score),[8],0.21
same,glycan array binding signal (z-score),[9],-0.281
same,glycan array binding signal (z-score),[10],-0.331
same,glycan array binding signal (z-score),[11],-0.387
same,glycan array binding signal (z-score),[12],-0.602
same,glycan array binding signal (z-score),[13],-0.154
same,glycan array binding signal (z-score),[14],-0.243
same,glycan array binding signal (z-score),[15],0.393
same,glycan array binding signal (z-score),[16],0.05
same,glycan array binding signal (z-score),[17],-0.522
same,glycan array binding signal (z-score),[18],-0.253
same,glycan array binding signal (z-score),[19],-0.737
same,glycan array binding signal (z-score),[20],-0.452
same,glycan array binding signal (z-score),[21],-0.097
same,glycan array binding signal (z-score),[22],-0.441
same,glycan array binding signal (z-score),[23],-0.04
same,glycan array binding signal (z-score),Neu5Ac(a2-3)Gal(b1-4)Glc,0.884
same,glycan array binding signal (z-score),[24],-1.12
same,glycan array binding signal (z-score),[25],0.054
same,glycan array binding signal (z-score),[26],-0.409
same,glycan array binding signal (z-score),[27],-0.109
same,glycan array binding signal (z-score),[28],-0.618
same,glycan array binding signal (z-score),[29],-0.365
same,glycan array binding signal (z-score),[30],-0.317
same,glycan array binding signal (z-score),[31],-0.072
same,glycan array binding signal (z-score),[32],-0.616
same,glycan array binding signal (z-score),[33],-0.337
same,glycan array binding signal (z-score),[34],-0.384
same,glycan array binding signal (z-score),[35],1.43
same,glycan array binding signal (z-score),[36],0.128

# Reference: the supplement of paper PMC8728848
